Target: T1, BRAF^V600E-LgBiT (UniProt P15056, V600E)
T1 construct: source: HEK293T, transiently transfected (PEI); in living cells; not shown: HA, N-terminal, kept; LgBiT (158 aa, joined by a 15 aa G/S linker), C-terminal, kept
Assay: split reporter (BiFC, NanoBiT); living HEK293T cells co-transfected with a LgBiT and a SmBiT fusion plus empty pMIG or pMIG/KRAS^G12V; 96-well plate, Furimazine (Vivazine or Endurazine for long-term runs); with DMSO, 10 µM Sorafenib or other RAF/MEK inhibitors for 4 h, or 100 ng/ml EGF
Settings: partners not purified

B1: BRAF^V600E-SmBiT (natural protein)
chain: not shown
notes: source: HEK293T, transiently transfected (PEI); in living cells; not shown: HA, N-terminal, kept; SmBiT (11 aa, joined by a 15 aa G/S linker), C-terminal, kept
fold dimer formation (luminescence) over the wild-type BRAF-LgBiT/BRAF-SmBiT pair: ~4 fold

Source: paper PMC10265822, “Analysis of RAS and drug induced homo- and heterodimerization of RAF and KSR1 proteins in living cells using split Nanoluc luciferase” (Cell Communication and Signaling : CCS, 2023)
